Data published in PubChem BioAssay AID686978 (National Center for Advancing Translational Sciences (NCATS), 2013).
In all, about 420,000 compounds went through this assay and about 64,000 (15%) were called active. The inconclusive results got no clear call from the source; some entries with a clear call stand among them for comparison. Calls come from the whole dose curve; as a rule, active = well fitted inhibition curve with a large enough effect; inconclusive = small, poorly fitted or top-dose-only effect; inactive = flat fitted curve, though single readings scatter. No potency is given beside an inconclusive call; the fits are too rough.

Test: qHTS for Inhibitors of human tyrosyl-DNA phosphodiesterase 1 (TDP1): qHTS in cells in absence of CPT; note: nearly all actives have a fitted effect of over 55% in size
Settings: DT40 Tdp1-/- hTDP1 cells, no CPT, ATP luminescence, 48 h; activity change, negative = growth inhibition: at 46.2 µM (top of the series) unless noted
Summary of the method: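 DT40 Tdp1-/-;hTDP1 cells, no CPT (DMSO vehicle only), 400 cells/well; compounds pin-transferred; ≥48 hr, 37 °C; CellTiter-Glo 30 min RT dark, luminescence read.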
% is set by controls: 0 for no effect and ±100 for the full control effect; potency is the fitted concentration of half-maximal effect; tags give direction and shape of the fitted curve.

Compound	Potency	activity change, negative = growth inhibition
CCC(=O)Nc1ccc(-c2nnc(SCc3ccc(C(=O)Nc4nccs4)cc3)n2CC)cc1	inconclusive [inhibitor, single point]	–
COc1cc(OC)cc(C2=NC3(CCC(C)CC3)NC2=S)c1 (stereo unspecified)	inconclusive [inhibitor, single point]	–
CN(C)CCn1c(C(=O)O)cc2ccccc21	–	inactive: -2.51%
CCN(CC)CCN(C(=O)CCS(=O)(=O)c1ccccc1)c1nc2cc(OC)c(OC)cc2s1	inconclusive [inhibitor, single point]	–
COc1cccc(CNC(=O)Cn2nc([N+](=O)[O-])c(Br)c2C)c1	inconclusive [inhibitor, partial curve, poor fit]	–
COc1cccc(Cn2c(=O)n(CC3CCC(C(=O)N4CCCCC4)CC3)c(=O)c3sccc32)c1 (stereo unspecified)	inconclusive [inhibitor, single point]	–
Nc1nnnn1/N=C/c1cc(Cl)cc(Cl)c1O	inconclusive [inhibitor, single point]	–
COc1ccccc1N1CCN(C(=O)C2CCN(S(=O)(=O)c3c(C)noc3/C=C/c3ccc(C)cc3)CC2)CC1	inconclusive [inhibitor, single point]	–
O=C1CCCC/C=C\C[C@H](CC(=O)N(CCO)Cc2ccccc2)C(=O)N[C@@H](Cc2ccccc2)CO1	inconclusive [inhibitor, single point]	–
Cc1ccc(C(CNS(=O)(=O)c2cc(F)ccc2F)N2CCN(C)CC2)cc1 (stereo unspecified)	inconclusive [inhibitor, single point]	–
Cc1occc1C(=O)N1CCCC(N2CCN(c3cccc(Cl)c3)CC2)C1 (stereo unspecified)	inconclusive [inhibitor, single point]	–
CC1(C(=O)NS(=O)(=O)c2ccc(Cl)cc2)CCN1C(=O)c1ccco1 (stereo unspecified)	–	inactive: -6.71%
CCOC(=O)N1CCC(NC(=O)c2cc3c(-c4cccc(OC)c4)nn(C)c3s2)CC1	inconclusive [inhibitor, single point]	–
O=C(NCc1ccccn1)c1cc(-c2ccccc2Cl)on1	–	inactive: -4.58%
Cc1ccc(OCC(=O)Nc2cccc(S(=O)(=O)NC3=NCCCCC3)c2)cc1C	inconclusive [inhibitor, single point]	–
CCOc1ccc(NC(=S)N(CCc2c(C)[nH]c3ccc(C)cc23)Cc2ccncc2)cc1	inconclusive [inhibitor, single point]	–
Cc1cc(C)cc(-n2c(SCC(=O)NCc3ccco3)nc3c([nH]c4ccccc43)c2=O)c1	inconclusive [inhibitor, single point]	–
COc1ccc(CNC(=O)c2ccc(S(=O)(=O)N3CCOCC3)cc2)cc1	inconclusive [inhibitor, partial curve]	–
Cc1ccc(Cn2c(SCCN3CCCCC3)nc3c2c(=O)[nH]c(=O)n3C)cc1	inconclusive [inhibitor, single point]	–
CCC(CC)c1nnc(NC(=O)c2c(C)nn(Cc3ccccc3Cl)c2C)s1	–	inactive: -26.4%
Cc1cc2c(cc1S(=O)(=O)NCCc1ccccc1)NC(=O)CO2	–	inactive: -19.3%
Cc1nnc2c(N3CCN(c4ccccc4F)CC3)nc3ccccc3n12	–	inactive: -5.46%

Compound	Potency	activity change, negative = growth inhibition
CC(C)(C(=O)N1CCC1(C)C(=O)Nc1ccccc1Br)c1ccccc1 (stereo unspecified)	inconclusive [inhibitor, single point]	–
CC(=O)Cn1nnc2sc3c(c2c1=O)CCC(C(C)(C)C)C3 (stereo unspecified)	inconclusive [inhibitor, single point]	–
COc1cc(N(C(=O)Cc2cccs2)C(C(=O)NC2CCCCC2)c2ccc(C)cc2)ccc1-n1cnnn1 (stereo unspecified)	active: 13 µM	–
COc1ccc(NC(=O)NCCc2c(C)nn(C)c2C)c(OC)c1	–	inactive: 8.55%
Cc1cc(C)cc(N2CC(O)=C(c3nc4ccccc4c(=O)[nH]3)C2=N)c1	active: 9.2 µM	–
Cc1nn(-c2ccccc2)c2nc(C(F)F)cc(C(F)F)c12	–	inactive: -15.2%
COC(=O)[C@@]12C[C@@H](CC(=O)NCC34CC5CC(CC(C5)C3)C4)C(=O)N(Cc3cccc4ccccc34)C1=CCC(C)(C)C2	inconclusive [inhibitor, single point]	–
COc1cc(S(=O)(=O)N2CCOCC2)ccc1NC(=O)CSc1n[nH]c(=O)[nH]c1=O	–	inactive: 17.5%
CC(=O)Nc1cccc(-c2ccnc3c2CC(C)(C(=O)NCCC(F)(F)F)O3)c1 (stereo unspecified)	active: 4.11 µM	–
Cc1nc2ccc(C(=O)N/N=C/c3ccccc3O)cc2[nH]1	inconclusive [inhibitor, single point]	–
Cc1cc(-n2c(SCC(=O)NCc3ccccc3)nc3ccsc3c2=O)ccc1Cl	inconclusive [inhibitor, single point]	–
CSc1nc(SC)c2c3c(oc2n1)COC(C)(C)C3	inconclusive [inhibitor, partial curve, poor fit]	–
COc1ccc(-c2ccc(-c3noc(-c4ccccc4)n3)c(OC)n2)cc1	inconclusive [inhibitor, single point]	–
C=C[C@@H](C1=CC(=O)C(OC)=C(OC)C1=O)c1ccccc1	active: 0.731 µM	–
COc1cc(O)sc1C=Nc1ccc(Cl)cc1	inconclusive [inhibitor, single point]	–
Cc1c(CN2CCOc3c(O)cc(-c4nc5ccccc5s4)cc3C2)cnn1C	inconclusive [inhibitor, single point]	–
Cc1ccc2c(c1)c(=O)c1ccccc1n2CCCC(=O)Nc1ccc(C)c(F)c1	inconclusive [inhibitor, single point]	–
O=C(CSc1ccc2ccccc2n1)NCc1ccc2c(c1)OCO2	inconclusive [inhibitor, single point]	–
CCOC(=O)c1cc(-c2ccc(C)cc2)n(CCC(=O)Nc2nc3c(C)cccc3s2)c1C	inconclusive [inhibitor, single point]	–
Cc1ccc(NC(=O)CN(C)C(=O)COC(=O)c2nc3nccc(C)n3n2)cc1	–	inactive: 2.39%
Cc1ccc(CC(=O)N(C)CC(=O)Nc2ccc(N3CCOCC3)cc2)cc1C	–	inactive: -20.1%
O=C1NC(=O)C(c2ccccc2)(c2ccc(Cl)cc2Cl)N1 (stereo unspecified)	inconclusive [inhibitor, single point]	–

Compound	Potency	activity change, negative = growth inhibition
Cc1cc(C(C)(C)C)ccc1Oc1cccc2c1S(=O)(=O)N(C1CCCC1)CC(COCc1ccccc1)O2 (stereo unspecified)	–	inactive: -86.1%
Cc1ccnc2c(Cl)ccc(Cl)c12	inconclusive [inhibitor, partial curve, poor fit]	–
CN(C)C(=O)c1cc(Br)ccc1Cl	–	inactive: -9.43%
CN(C)c1ccc(/C=N/NC(N)=S)cc1[N+](=O)[O-]	inconclusive [inhibitor, single point]	–
COc1ccccc1N1CCN(CCCCOc2ccc(C)cc2C)CC1	inconclusive [inhibitor, partial curve]	–
Cc1ccc(CN2CCSc3ccc(C(=O)NC4CCN(Cc5ccccc5)CC4)cc32)cc1	active: 8.2 µM	–
CCN(C(=O)CCc1nc(-c2ccc(C)cc2)no1)c1cccc(C(F)(F)F)c1	inconclusive [inhibitor, single point]	–
O=C(O)COc1ccc(/C=N/Nc2nc(Nc3ccccc3)nc(N3CCCCC3)n2)cc1	inconclusive [inhibitor, single point]	–
Cc1ccc([C@H]2N[C@]3(CCCN(Cc4cccn4C)C3=O)[C@H]3C(=O)N(C)C(=O)[C@@H]23)cc1	inconclusive [inhibitor, partial curve]	–
Fc1ccc(Cn2nnc(-c3ccc(CN4CCOCC4)cc3)n2)cc1	inconclusive [inhibitor, partial curve, poor fit]	–
CN(Cc1ccccc1)C(=O)c1nc2ccccn2c1CNCCOc1cccnc1	–	inactive: -0.425%
c1coc(-c2nc(-c3ccco3)c(-c3ccco3)nc2-c2ccco2)c1	inconclusive [inhibitor, single point]	–
NC(=O)C(NN=C(c1ccccc1)c1ccccc1)c1ccccc1 (stereo unspecified)	inconclusive [inhibitor, partial curve]	–
COc1ccc2c(c1)Cc1sc(NC(=O)c3cccnc3)nc1-2	active: 20.6 µM	–
COc1ccccc1S(=O)(=O)Cc1ccc(C(=O)NC2CCCCC2)o1	inconclusive [inhibitor, full curve, poor fit]	–
COC(=O)C1=C(C)N(c2ccccc2)/C(=C/c2cccs2)C1=O	inconclusive [inhibitor, partial curve]	–
CCOC(=O)c1cc2sc(C)cc2n1C(C)C(=O)OCC (stereo unspecified)	inconclusive [inhibitor, single point]	–
CCOC(=O)c1c(C)[nH]c(CCC(=O)Nc2ccccc2C(F)(F)F)c1C	inconclusive [inhibitor, single point]	–
CC(=O)c1cccc(NC(=S)NCCCCc2ccccc2)c1	inconclusive [inhibitor, single point]	–
CCc1ccc(NC(=O)CSc2nnc3[nH]c(=O)cc(-c4ccccc4)n23)cc1	–	inactive: 7.01%
N=c1c(C(=O)NC2CCCCC2)cc2c(=O)n3ccccc3nc2n1Cc1ccco1	inconclusive [inhibitor, partial curve, poor fit]	–
CCOC(=O)/C=C/C(=O)OCC(=O)Nc1cccc(Br)c1	inconclusive [inhibitor, single point]	–
